# Laboratory results reported in PubChem BioAssay AID1508642 (National Center for Advancing Translational Sciences (NCATS), 2021).
# Out of some 43,000 compounds screened, about 200 (0.47%) were called active. Inconclusive results (about 12%) are left out. The call rests on the fitted dose curve; in most records, active means well fitted cell-killing curve with a large enough effect; inconclusive means small, poorly fitted or top-dose-only effect, or effect the other way; inactive means flat fitted curve, though single readings scatter. The list shows a part of the results.
# Test: Cell viability qHTS assay in S16 Pmp22-F2sN cells; further: nearly all actives have a fitted effect of over 65% in size
# Conditions: S16 Pmp22-F2sN Schwann cells viability, CellTiter-Glo, 24 h; series mostly up to 57.5 µM; activity change, negative = cytotoxicity: at the top concentration
# In short: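 Viability was measured by CellTiter-Glo luminescence (15 min, room temperature). This followed 24 h at 37 °C of compound exposure (23 nL pin transfer) in S16 Pmp22-F2sN Schwann cells, 500-1,000 per well.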
# On the % scale 0 is the no-effect control and ±100 the full control effect.
row,Structure (SMILES),"activity change, negative = cytotoxicity"
1,COc1cc2nc(NCCc3ccccc3)n3nc(-c4cccnc4)nc3c2cc1OC,inactive: 0.271%
2,CCCSc1ncc(Cl)c(C(=O)N2CCN(c3cccc(Cl)c3)CC2)n1,inactive: -0.564%
3,CCOc1ccc(NC(=O)CC2C(=O)N(c3ccc(OC)cc3)C(=O)N2C2CCCCC2)cc1 (stereo not given),inactive: -1.37%
4,COc1ccc(CNC(=O)C(Cc2ccccc2)NS(=O)(=O)c2ccc3c(c2)CCN3C(C)=O)cc1 (stereo not given),inactive: -13.7%
5,Cc1ccc(NC(=O)Nc2cn(C)c(=O)c3ccccc23)c(Cl)c1,inactive: 20.1%
6,Cc1cccc(N2CCN(C(=O)C3CCN(S(=O)(=O)c4c(C)noc4/C=C/c4ccccc4F)CC3)CC2C)c1 (stereo not given),inactive: 0.154%
7,Cc1ccc2oc(=O)c3cnn(CC(=O)N4CCN(c5ccccc5F)CC4)c3c2c1,inactive: 16.4%
8,Cc1ccc(C2C=C(c3ccccc3)Nc3nc(NS(=O)(=O)c4ccc(C)cc4)nn32)cc1 (stereo not given),inactive: -1.07%
9,Cc1cc(=O)n(Cc2ccccc2)c2c1c(C)nn2-c1ccccc1,inactive: 1.82%
10,CCOc1ccc(NC(=O)CC2C(=O)N(c3ccccc3)C(=O)N2C2CCCC2)cc1 (stereo not given),inactive: -8.47%
11,Cc1cccc(N2CCN(C(=O)c3cnn(-c4ccc(F)cc4F)c3C3CCN(C(=O)OC(C)(C)C)CC3)CC2)c1C,inactive: -4.05%
12,Cc1ccc(CNC(=O)Cn2nc(N3CCN(c4ccccc4)CC3)ccc2=O)cc1,inactive: 9.32%
13,COc1ccc(-n2c(SCC(=O)NCc3ccco3)nc3c([nH]c4ccccc43)c2=O)cc1,inactive: 15.2%
14,CCOc1ccccc1NC(=O)c1cc2cc3cc(C)ccc3nc2s1,inactive: 1.31%
15,CCCn1c2ccccc2c2cnn(CC(=O)N(CC)c3cc(C)ccc3C)c(=O)c21,inactive: -6.46%
16,CCCNC(=O)CSc1c2c(nc3ccc(Cl)cc13)CCCC2,inactive: 16.1%
17,Cc1ccc(NC(=O)CSc2nc3ccccc3c(=O)n2CCC(=O)NC2CCCCC2)cc1C,inactive: -13.1%
18,CCc1cccc(NC(=O)CSc2nc3ccccc3nc2N2CCCCC2)c1,inactive: 1.19%
19,COc1cccc(NC(=O)c2sc3nc(C)c(C(=O)Nc4ccc(C)cc4C)c(-c4ccco4)c3c2N)c1,inactive: 6.29%
20,COc1ccc(OCC(=O)Nc2cccc(C(=O)OCc3cc(=O)n4nc(C)sc4n3)c2)cc1,inactive: 5.47%

row,Structure (SMILES),"activity change, negative = cytotoxicity"
1,CNC(=O)CCCN1C(=O)CCn2nc(-c3cn(C)c4ccccc34)cc21,inactive: 8.18%
2,COCc1cc(C)nc2sc(C(=O)Nc3ccc(C(C)=O)cc3)c(N)c12,inactive: 0.251%
3,Cc1nc2c3ccccc3nc(NNC(=O)CCC(=O)N3CCN(c4cc(Cl)ccc4C)CC3)n2n1,inactive: 0.496%
4,Cc1csc2nc(COc3ccc(NC(=O)C(C)C)cc3)cc(=O)n12,inactive: 8.81%
5,CCc1ccc(NC(=O)C2CCCN2S(=O)(=O)c2ccc3nc(-c4ccccc4)[nH]c3c2)cc1 (stereo not given),inactive: -28.8%
6,CCN(CC)S(=O)(=O)c1ccc2c(c1)c(=O)c(C(=O)NCCc1ccccc1)cn2C,inactive: 1.06%
7,COc1ccc(C2CC(=O)c3cnc4c(-c5ccc(F)cc5)c(C)nn4c3C2)cc1OC (stereo not given),inactive: 5.21%
8,Cc1ccccc1NC(=O)CC1NCCNC1=O (stereo not given),inactive: 1.18%
9,C=CCc1ccccc1OCc1nc2ccc(C)cc2[nH]1,inactive: -24.5%
10,COc1ccc(-n2ncc(C(=O)N3CCN(C4CCCCC4)CC3)c2C2CCN(C(=O)OC(C)(C)C)CC2)cc1,inactive: -2.96%
11,CCOC(=O)c1c(NC(=O)CSc2nc(-c3ccc(OC)cc3)cc(C(F)(F)F)n2)sc(C)c1C,inactive: 9.93%
12,Cn1c(=O)n(CC(=O)O)c(=O)c2c1nc1n2CCCN1c1ccc(Cl)cc1,inactive: -3.06%
13,Cc1ccc(C(=O)NCC(c2cccs2)S(=O)(=O)c2ccccc2)cc1C (stereo not given),inactive: -8.43%
14,CC(C)Nc1nc2c(S(=O)(=O)c3cccc(Cl)c3)nnn2c2ccsc12,inactive: -6.56%
15,CC(=O)c1cccc(NC(=O)CCn2nc(C)c(S(=O)(=O)N(C)C)c2C)c1,inactive: -3.98%
16,CC(C)CCNC(=O)c1ccc2nc(CCc3ccccc3)oc2c1,inactive: 1.11%
17,CC(C)c1ccc(S(=O)(=O)N2CCN(CC(=O)Nc3ccccc3C(F)(F)F)CC2)cc1,inactive: -0.821%
18,COc1cc(CN(C(=O)Nc2cccc(Cl)c2)c2ccccn2)cc(OC)c1OC,inactive: -8.37%
19,COC(=O)c1nnn(CC(=O)Nc2c(C)cccc2C)c1N,inactive: -7.51%
20,COC(=O)c1ccc(C(=O)OC)c(NC(=O)c2c(-c3ccccc3)noc2C)c1,inactive: -0.703%

row,Structure (SMILES),"activity change, negative = cytotoxicity"
1,COc1ccc(CCNc2nc(SCc3ccccc3F)nc3ccccc23)cc1OC,inactive: -4.1%
2,CCOC(=O)c1c(C)oc2nc(C)nc(NCCc3ccc(OC)c(OC)c3)c12,inactive: -11.8%
3,COC(=O)c1sc(N2C(=O)c3oc4ccc(C)cc4c(=O)c3C2c2ccc(O)c(OC)c2)nc1C (stereo not given),inactive: -12.8%
4,CCCCC(CC)CNC(=O)CCCCn1c(=O)[nH]c2ccsc2c1=O (stereo not given),inactive: -12.9%
5,Cc1cccc(-c2noc(-c3ccc(NCc4ccccc4)c([N+](=O)[O-])c3)n2)c1,inactive: 6.18%
6,CC1=C(c2ccc(C)c(C)c2)S(=O)(=O)N=C1N1CCC(C(=O)NCc2ccccc2C)CC1,inactive: -4.27%
7,Cc1ccc(NC(=O)CN2C(=O)COc3ccc(S(=O)(=O)N4CCOCC4)cc32)cc1N(C)C,inactive: 16.3%
8,COc1ccccc1N1CCN(CCCNC(=O)c2nnc(Cc3ccc(F)cc3Cl)o2)CC1,inactive: -19.3%
9,Cc1ccc(N(C)S(=O)(=O)c2ccc(-c3coc(C)n3)cc2)cc1,inactive: 2.01%
10,Cc1nn(CC(=O)NCCc2ccccc2)c(=O)c2nn(-c3ccccc3)c(C)c12,inactive: 0.657%
11,COc1cc(C2C(C(=O)Nc3ccc(Cl)cc3)=C(C)Nc3nc(SC)nn32)cc(OC)c1OC (stereo not given),inactive: 0.929%
12,CC1=C(C(N)=O)C(c2cccc(Br)c2)n2nc(SCc3ccccc3Cl)nc2N1 (stereo not given),inactive: -7.88%
13,Cc1cc(C)c2oc(-c3ccc(NC(=O)COc4ccccc4C)cc3)nc2c1,inactive: -2.17%
14,CCOc1ccc(CCNC(=O)c2cc3sccc3n2CC)cc1OCC,inactive: -0.774%
15,CC(C)Cc1ccc(S(=O)(=O)NCc2nc3cccnc3n2Cc2ccccc2)cc1,inactive: -9.59%
16,COc1ccc(-n2ncc(C(=O)N3CCN(C(=O)c4ccco4)CC3)c2C2CCN(C(=O)OC(C)(C)C)CC2)cc1,inactive: -1.95%
17,COc1ccc(-c2ccc(CNCCCSc3nnnn3C)o2)cc1Cl,inactive: 4.4%
18,Cc1ccc(-n2nc3c(N4CCC(C(=O)NC5CCCCC5)CC4)nnc(C)c3c2C)cc1,inactive: -16.7%
19,Cc1cc2oc(C(=O)Nc3ccc(S(=O)(=O)N4CCC(C)CC4)cc3)cc(=O)c2cc1C,inactive: -2.98%
20,Cc1ccc(/C=C/C(=O)N2CCC(c3nc4ccccc4o3)CC2)cc1,inactive: -2.96%
